According to patent US12338279B2, “Selective and potent inhibitory antibodies of myostatin activation” (SCHOLAR ROCK, INC., priority 2022, dated 2025):

Legend:
[1] = test system: male C57/BL6 mice on high fat diet; experiment: High fat diet mice treated with metformin and antibody; assay type: in vivo, mouse; settings: for fat mass gain: FIG. 12A
Method: Male C57/BL6 mice were fed a 60% high fat diet beginning at six weeks of age. At nineteen weeks of age (day 0), the mice were switched to a 45% high fat diet for 63 days. […] These mice were further divided into groups that received either 50 mg/kg of metformin or no metformin (Table 22a).
Body weight and food intake were monitored three times per week throughout the study. On days 7, 35, 49, and 63, body composition was determined by qNMR, and glucose, ketones, and insulin were measured. At the end of the study on day 63, body composition was determined by qNMR; glucose, ketones, and insulin were measured, gastrocnemius muscle, whole liver, epididymal, and subcutaneous adipose tissue was collected and weighed.
Male C57/BL6 mice (n=8/group) were fed a 60% HFD until week 18, at which time they are switched to a 45% HFD for 7 days. At day 7, animals in group 3-6 were treated with 50 mg/kg/day metformin, given orally throughout the remainder of the study.
Body weight was measured three times per week; lean mass and fat mass were measured by qNMR on days 7, 35, 49, 63, and 77; serum glucose was also measured on days 7, 35, 49, 63, and 77; serum insulin was measured on days 49, 63, and 77. A glucose tolerance test (GTT) and an insulin tolerance test (ITT) was administered between day 56 and day 63.

[2] = test system: biotinylated human pro-myostatin; experiment: Biacore 8k SPR binding affinity, human pro-myostatin
Excerpt: (§1) The Biacore™ 8 k SPR system was utilized to evaluate the binding affinity of myostatin antibodies to biotinylated human, murine, and cyno pro-myostatin. Biotin CAPture kit and sensor chips (Cytiva) were utilized in these experiments to immobilize the various antigens, followed by flowing a range of concentrations of each of the test antibodies.

[3] = AC-SINS self-interaction (aggregation behavior); assay type: physicochemical; settings: cutoff shift >5 nm in plasmon wavelength
How it was run: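 Antibodies captured on gold nanoparticles coated with polyclonal anti-human-mAb antibodies; self-association shifts the plasmon absorbance maximum toward red. Value reported as plasmon wavelength, with 530 nm as unaggregated reference; shift >5 nm taken as self-interacting.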

total myostatin in serum [4] = experiment: Total serum myostatin, liraglutide study; assay type: in vivo, mouse; settings: for Myostatin (total serum myostatin): terminal bleed serum
Method: Levels of the antibodies' exposure to myostatin in the serum was measured by assaying for total myostatin in the serum (Lakshman (2009) Cellular Endocrinol 302:26). […] The samples were then neutralized and assayed for mature growth factor.

[5] = test system: male C57/BL6 mice on high fat diet; experiment: Diet-induced obesity model, semaglutide with Ab109, withdrawal and continuous arms (Example 6); assay type: in vivo, mouse
Method: Male C57/BL6 male mice (n=8/group) were either fed regular mouse chow (Group 1) or placed on a 60% high fat diet at six weeks of age and maintained on the 60% high fat diet until 21 weeks of age (Groups 2-8), at which time the study began (day 0). On day 0, animals in groups 2-8 were switched to a 45% high fat diet and maintained on the 45% high fat diet until the animals were terminated. […] Body weight was measured three times per week and qNMR measurements of lean mass and fat mass were obtained on the days set forth.
Animals in groups 3 and 4 were dosed with semaglutide weekly for 14 days, then terminated. Animals in groups 5 and 6 (weight regain groups), were treated with semaglutide for 35 days, then the semaglutide treatment was ended while the myostatin activation inhibiting antibody treatment continued until the animals were terminated on day 63. The animals in Groups 7 and 8 were treated with semaglutide for 63 days, i.e., they remained on semaglutide until the study terminated on day 63.
At termination, left and right gastrocnemius muscles were removed and frozen; the liver was weighed, one lobe was fixed, and the remainder was frozen; epididymal adipose tissue was removed and weighed; subcutaneous adipose tissue was removed and weighed; and a terminal serum bleed was obtained.

[6] = test system: biotinylated murine pro-myostatin; experiment: Biacore 8k SPR binding affinity, murine pro-myostatin; set-up: species or system mouse
Excerpt: as §1

total myostatin in serum [7] = experiment: Total serum myostatin (PD) in obese mice with or without semaglutide (Example 8); assay type: in vivo, mouse; settings: 0.1 to 3 mg/kg, alone or with semaglutide; FIG. 16B
Method: Male 19 week old C7/BL6 mice fed a high fat diet to induce obesity (DIO-B6-M mice, were evaluated for the effect of the combination of antibody and semaglutide on the exposure of the antibody to the target antigen (PK) and the total myostatin serum level (PD), as shown in Table 25. Animals were dosed with antibody intraperitoneally on days 0, 7, and 14 and were dosed with semaglutide subcutaneously daily throughout the study. Exposure of the antibody to immobilized promyostatin was determined by ELISA. Total serum myostatin was also measured by ELISA. The study concluded on day 22, when terminal bleeds were obtained.

[8] = Pharmacokinetics of Ab109 in non-human primates, subcutaneous or intravenous; assay type: in vivo, Cynomolgus macaques
Method: • [1] A preliminary analysis of the pharmacokinetics of subcutaneous or intravenous dosing of Ab109 was determined in non-human primates following a single dose of Ab109 in five groups, each comprising three Cynomolgus macaques. Groups 1-4 were dosed subcutaneously with 0.3, 3, 10 or 30 mg/kg antibody, respectively. […] Samples were taken at day −1 (pre-dose), 1-hour and 8-hour post-dose, and at days 1, 3, 4, 5, 7, 10, 14, 17, 21, 28, 35, 42, 56 and 63 post-dose. An interim pharmacokinetic analysis was performed on samples up to 28 days post-dose.

B1: Ab109: anti-pro/latent myostatin antibody; CDRs in Tables 2d-f, variable domains Table 3, chains Table 4 (antibody)
heavy: EVQLVESGGGLVQPGGSLRLSCAASGFTFSSYGMSWVRQAPGKGLELVASFTGSGGTYYPDSVKGRFTISRDNAKNSLYLQMNSLRAEDTAVYYCARDLLIRFLEWSHYYGMDVWGQGTTVTVSSASTKGPSVFPLAPCSRSTSESTAALGCLVKDYFPEPVTVSWNSGALTSGVHTFPAVLQSSGLYSLSSVVTVPSSSLGTKTYTCNVDHKPSNTKVDKRV[human IgG4 Fc with S228P (EU numbers) left out]
light: DIVMTQSPLSLPVTPGEPASISCRSSQSLLHSSGHNFLHWYLQKPGQSPQLLIYEVSNRVSGVPDRFSGSGSGTDFTLKISRVEAEDVGVYYCMQQTQYPPTFGGGTKVEIKRTVAAPSVFIFPPSDEQLKSGTASVVCLLNNFYPREAKVQWKVDNALQSGNSQESVTEQDSKDSTYSLSSTLTLSKADYEKHKVYACEVTHQGLSSPVTKSFNRGEC
In the case of B1, the fat mass gain ([1]; combination of metformin 50 mg/kg and Ab109, 45% high fat diet) is reported as “stopped the fat mass gain”, the fat mass gain ([1]; metformin alone or Ab109 alone, 45% high fat diet) is reported as “Neither metformin alone nor Ab109 alone showed this effect” and the lean muscle mass ([1]; with or without metformin, FIG. 12B) is reported as “gained more lean muscle mass regardless of whether they received metformin”. The “Ka” value [2] was 6.62e+06 M⁻¹ s⁻¹, the “Kd (1/s)” value [2] was 0.000196 s⁻¹ and the “aggregation behavior by AC-SINS” value [3] was “did not display aggregation behavior”. The “Myostatin (total serum myostatin)” value (total myostatin in serum [4]; antibody 1 mg/kg/week + liraglutide 0.06 mg/kg q.d.) was 12.2 ng/mL, the “Myostatin (total serum myostatin)” value (total myostatin in serum [4]; antibody 3 mg/kg/week + liraglutide 0.06 mg/kg q.d.) was 4.7 ng/mL and the “Myostatin (total serum myostatin)” value (total myostatin in serum [4]; antibody 10 mg/kg/week + liraglutide 0.06 mg/kg q.d.) was 5.6 ng/mL. For the same molecule, the “Myostatin (total serum myostatin)” value (total myostatin in serum [4]; antibody 20 mg/kg/week + liraglutide 0.06 mg/kg q.d.) was 4.5 ng/mL, the total serum myostatin (total myostatin in serum [4]; liraglutide-treated mice, Table 21, FIG. 15B) was “reduced total serum myostatin concentrations compared to Ab2; also recorded: decrease in serum myostatin” and the gastrocnemius muscle weight ([5]; 14 days of semaglutide treatment, group 4, FIG. 14E) was “preserved the gastrocnemius muscle weight”. The “further reduction of fasting blood glucose” value ([5]; Ab109 in conjunction with semaglutide, FIG. 14I) was “approximately 20%”, the liver weight ([5]; Ab109 in conjunction with semaglutide, FIG. 14J) was “reduced liver weight” and the fat mass loss ([5]; Ab109 with semaglutide, FIG. 14H) was “enhanced fat mass loss”. For the same molecule, the lean mass ([5]; Ab109 with semaglutide, FIGS. 14B, 14C, 14H) was “continued to increase their lean mass throughout the duration of the study; also recorded: had more lean mass than the animals treated with hIgG and semaglutide; also recorded: reversed lean mass loss”, the “fat mass regain after semaglutide withdrawal” value ([5]; FIG. 14D) was “regained less fat mass and regained it at a slower rate than those treated with control IgG” and the “body weight regain after semaglutide withdrawal” value ([5]; groups 5 and 6, FIG. 14A) was “regained weight at the same rate whether they were treated with hIgG or Ab109”. For the same molecule, the “lean mass after semaglutide withdrawal” value ([5]; weight regain groups 5 and 6, FIG. 14B) was “gained more lean mass than those treated with hIgG after semaglutide was withdrawn”, the “Ka” value [6] was 6.81e+06 M⁻¹ s⁻¹ and the “Kd (1/s)” value [6] was 0.00134 s⁻¹. For the same molecule, the “serum total myostatin (PD)” value (total myostatin in serum [7]) was “not affected by the presence of semaglutide”, the “concentration of antibody in the serum across dose groups” value ([8]; single dose 0.3, 3, 10, 30 mg/kg s.c., FIG. 24) was “dose proportional” and the apparent bioavailability ([8]; subcutaneous vs intravenous 10 mg/kg, AUC0-28, interim analysis) was “greater than 85%”.

“Also recorded” adds a separate entry of the source.
